Where a chain is given by its changes, count along the chain named. Names may count otherwise. ± gives the standard deviation of the averaged measurements. Laboratory Escherichia coli strains with one amino-acid change in an essential protein, pooled on minimal glucose agar with carbenicillin or gentamicin at twice the control MIC (plus kanamycin and chloramphenicol for the plasmids), 48 h. Fold change of barcode share against drug-free plates; higher = less susceptible. Active = above 20 in both replicates (the paper's putatively resistant). '<' = one read or none on drug, '>' = one read or none on a drug-free plate. Shares are relative, so most strains fall below 1 when a few take over. Listed are strains with at least 15 reads on both drug-free plates, and hits; most hits rest on fewer reference reads. Replicate rank correlation about 0.5. Edits are read from barcodes.
B1: infC V173W (protein)
chain: MKGGKRVQTARPNRINGEIRAQEVRLTGLEGEQLGIVSLREALEKAEEAGVDLVEISPNAEPPVCRIMDYGKFLYEKSKSSKEQKKKQKVIQVKEIKFRPGTDEGDYQVKLRSLIRFLEEGDKAKITLRFRGREMAHQQIGMEVLNRVKDDLQELAVVESFPTKIEGRQMIMWLAPKKKQ
B2: infC L174A (protein)
chain: B1 chain with W173V, L174A
B3: infC L174W (protein)
chain: B1 chain with W173V, L174W
B4: infC L174Q (protein)
chain: B1 chain with W173V, L174Q
B5: infC I165W (protein)
chain: B1 chain with I165W, W173V
B6: infC I165Q (protein)
chain: B1 chain with I165Q, W173V
B7: infC M170A (protein)
chain: B1 chain with M170A, W173V
B8: infC M170W (protein)
chain: B1 chain with M170W, W173V
B9: infC M170Q (protein)
chain: B1 chain with M170Q, W173V
B10: infC M170D (protein)
chain: B1 chain with M170D, W173V
B11: infC M170P (protein)
chain: B1 chain with M170P, W173V
B12: ispA L51A (protein)
chain: MDFPQQLEACVKQANQALSRFIAPLPFQNTPVVETMQYGALLGGKRLRPFAVYATGHMFGVSTNTLDAPAAAVECIHAYSLIHDDLPAMDDDDLRRGLPTCHVKFGEANAILAGDALQTLAFSILSDADMPEVSDRDRISMISELASASGIAGMCGGQALDLDAEGKHVPLDALERIHRHKTGALIRAAVRLGALSAGDKGRRALPVLDKYAESIGLAFQVQDDILDVVGDTATLGKRQGADQQLGKSTYPALLGLEQARKKARDLIDDARQSLKQLAEQSLDTSALEALADYIIQRNK
B13: ispA V52A (protein)
chain: B12 chain with A51L, V52A
B14: ispA I76A (protein)
chain: B12 chain with A51L, I76A
B15: ispA I76Q (protein)
chain: B12 chain with A51L, I76Q
B16: ispA L290A (protein)
chain: B12 chain with A51L, L290A
B17: ispA L290W (protein)
chain: B12 chain with A51L, L290W
B18: ispA L290Q (protein)
chain: B12 chain with A51L, L290Q

Target: Escherichia coli (laboratory strain)
Assay: barcode share on antibiotic plates over drug-free plates; higher = less susceptible
Description: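 A pool of E. coli strains, each edited to carry one amino-acid change in an essential protein, was grown for 48 h on minimal glucose agar with or without antibiotic; strain barcodes were sequenced; mean of two replicates.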

[1] = antibiotic: carbenicillin, 2× MIC (3.1 µg/mL)
[2] = antibiotic: gentamicin, 2× MIC (MIC 0.45 µg/mL)

| Protein | fold change of barcode share [1] | fold change of barcode share [2] |
| --- | --- | --- |
| B1 | 0.26 ± 0.27 | – |
| B2 | 0.279 ± 0.097 | < 0.0037 |
| B3 | 0.293 ± 0.13 | < 0.00679 |
| B4 | 0.395 ± 0.036 | < 0.0195 |
| B5 | 0.158 ± 0.012 | < 0.0195 |
| B6 | 0.0417 ± 0.017 | 0.0376 ± 0.026 |
| B7 | 0.269 ± 0.07 | 0.00532 ± 0.0022 |
| B8 | 0.313 ± 0.032 | < 0.0091 |
| B9 | 0.217 ± 0.049 | 0.0122 ± 0.011 |
| B10 | 0.377 ± 0.17 | 0.996 ± 1.3 |
| B11 | 0.189 ± 0.0056 | 0.0279 ± 0.037 |
| B12 | 0.491 ± 0.14 | 1.22 ± 1.7 |
| B13 | 0.225 ± 0.042 | 0.113 ± 0.13 |
| B14 | 0.367 ± 0.099 | 2.4 ± 3.2 |
| B15 | 0.361 ± 0.039 | 2.87 ± 3.9 |
| B16 | 0.371 ± 0.13 | 0.0151 ± 0.014 |
| B17 | 0.436 ± 0.4 | < 0.011 |
| B18 | 0.338 ± 0.12 | < 0.00856 |

Reference: the supplement of paper PMC11876631
